Measured values from the supplement of paper PMC6531468.
Some of the results follow. Values come from read counts of a selection and are noisy. Scores sum up all selected molecules that hold the word; the word was not tested alone.

Assays:
Assay in all cases: 6-mer SELEX enrichment z-score vs GST control; IMP3 is the RNA-binding protein IGF2BP3; higher = more enriched by binding
IMP3 KH1-4 = conditions: construct: KH1-4 (164-579); SELEX round: R4
Method: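 SELEX-seq with GST-tagged IMP3 KH1-4 (Pro164-Lys579) and an N40 RNA pool, round 4. 6-mer z-score of sequence-tag enrichment normalised to the corresponding GST SELEX round; RNA k-mers written as DNA (T for U).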

IMP3 RRM1-2 = conditions: construct: RRM1-2 (1-163); SELEX round: R2
Sequence of IMP3 RRM1-2 (chain, as listed by the source): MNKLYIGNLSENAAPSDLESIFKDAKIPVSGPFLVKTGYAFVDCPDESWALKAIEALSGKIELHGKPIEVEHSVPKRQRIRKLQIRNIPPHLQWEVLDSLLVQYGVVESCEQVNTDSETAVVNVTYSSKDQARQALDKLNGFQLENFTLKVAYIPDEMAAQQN
Method: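 SELEX-seq with GST-tagged IMP3 RRM1-2 (Met1-Asn163) and an N40 RNA pool, round 2. 6-mer enrichment z-score normalised to GST SELEX. RNA written as DNA (T = U).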

IMP3 full-length = IMP3 full-length (UniProt O00425); conditions: construct: FL IMP3 (1-579); SELEX round: R4
Sequence of UniProt O00425 (O00425 whole entry): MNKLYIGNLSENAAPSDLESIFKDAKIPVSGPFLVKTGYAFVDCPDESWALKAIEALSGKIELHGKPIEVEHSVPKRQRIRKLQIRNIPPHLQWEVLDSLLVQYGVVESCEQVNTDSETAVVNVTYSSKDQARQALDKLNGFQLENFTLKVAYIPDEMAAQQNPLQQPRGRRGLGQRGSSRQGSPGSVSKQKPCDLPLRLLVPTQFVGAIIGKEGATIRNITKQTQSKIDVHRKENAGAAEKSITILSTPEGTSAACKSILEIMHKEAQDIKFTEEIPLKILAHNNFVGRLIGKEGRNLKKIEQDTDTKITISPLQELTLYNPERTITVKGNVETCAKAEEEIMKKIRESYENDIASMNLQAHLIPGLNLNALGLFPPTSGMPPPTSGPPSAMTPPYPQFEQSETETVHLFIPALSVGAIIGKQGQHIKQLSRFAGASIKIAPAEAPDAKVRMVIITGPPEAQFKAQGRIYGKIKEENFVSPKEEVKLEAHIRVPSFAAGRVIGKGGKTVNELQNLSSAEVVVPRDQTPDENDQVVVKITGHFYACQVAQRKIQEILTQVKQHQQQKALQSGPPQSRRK
Method: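 SELEX-seq with GST-tagged full-length IMP3 and an N40 RNA pool, round 4. Each 6-mer is scored as an enrichment z-score of sequence tags containing it, normalised to the matching GST SELEX round. RNA written as DNA (T = U).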

IMP3 KH1-2 = conditions: construct: KH1-2 (164-376); SELEX round: R4
Sequence of IMP3 KH1-2 (chain, as listed by the source): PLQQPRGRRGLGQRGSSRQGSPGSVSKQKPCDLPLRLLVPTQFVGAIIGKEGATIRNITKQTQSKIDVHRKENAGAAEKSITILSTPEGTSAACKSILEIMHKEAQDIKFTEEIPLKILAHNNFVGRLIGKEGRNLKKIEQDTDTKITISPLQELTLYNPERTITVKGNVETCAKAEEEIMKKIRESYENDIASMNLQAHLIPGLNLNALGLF
Method: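 SELEX-seq with GST-tagged IMP3 KH1-2 (Pro164-Phe376) and an N40 RNA pool, round 4 (stringent 300/600 mM KCl washes). 6-mer z-score of sequence-tag enrichment normalised to the corresponding GST SELEX round; RNA k-mers written as DNA (T for U).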

IMP3 KH3-4 = conditions: construct: KH3-4 (377-579); SELEX round: R4
Sequence of IMP3 KH3-4 (chain, as listed by the source): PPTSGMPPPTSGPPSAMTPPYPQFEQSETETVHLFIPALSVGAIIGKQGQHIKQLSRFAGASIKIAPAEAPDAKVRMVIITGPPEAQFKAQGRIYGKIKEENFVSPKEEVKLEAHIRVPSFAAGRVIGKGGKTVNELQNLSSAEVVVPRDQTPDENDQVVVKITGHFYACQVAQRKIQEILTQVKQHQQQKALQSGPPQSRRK
Method: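 SELEX-seq with GST-tagged IMP3 KH3-4 (Pro377-Lys579) and an N40 RNA pool, round 4. 6-mer z-score of sequence-tag enrichment normalised to the corresponding GST SELEX round; RNA k-mers written as DNA (T for U).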

Sequence of IMP3 KH1-4 (chain, as listed by the source): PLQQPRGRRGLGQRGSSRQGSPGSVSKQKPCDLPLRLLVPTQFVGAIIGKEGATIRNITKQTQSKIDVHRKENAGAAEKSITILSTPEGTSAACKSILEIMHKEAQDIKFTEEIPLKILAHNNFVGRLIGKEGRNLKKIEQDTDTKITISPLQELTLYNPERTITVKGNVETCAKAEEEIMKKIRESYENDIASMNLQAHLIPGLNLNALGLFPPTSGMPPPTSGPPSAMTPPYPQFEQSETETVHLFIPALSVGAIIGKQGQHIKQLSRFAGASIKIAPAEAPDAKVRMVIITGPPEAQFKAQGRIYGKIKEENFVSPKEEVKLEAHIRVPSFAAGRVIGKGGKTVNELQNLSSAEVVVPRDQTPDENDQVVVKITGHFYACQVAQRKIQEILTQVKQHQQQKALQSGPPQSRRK

| Sequence | 6-mer SELEX enrichment z-score (IMP3 KH1-4) | 6-mer SELEX enrichment z-score (IMP3 RRM1-2) | 6-mer SELEX enrichment z-score (IMP3 full-length) | 6-mer SELEX enrichment z-score (IMP3 KH1-2) | 6-mer SELEX enrichment z-score (IMP3 KH3-4) |
| --- | --- | --- | --- | --- | --- |
| CTGCCC | -1.09 | -0.499 | -1.03 | -0.871 | -1.64 |
| CGATAC | -0.254 | -0.49 | -0.086 | -0.204 | -0.3 |
| GCACTT | 0.5 | 0.522 | 0.579 | 0.311 | 0.237 |
| TTGCTA | 0.276 | 0.208 | -0.06 | 0.187 | 0.358 |
| AGTATG | 0.376 | -0.111 | -0.058 | 0.191 | 0.529 |
| TATCGT | 0.151 | 0.318 | 0.057 | 0.044 | 0.237 |
| TCATTT | 1.37 | 1.22 | 1.28 | 1.29 | 1.34 |
| ATCCAA | -1.26 | -0.36 | -1.06 | -1.19 | -1.47 |
| AGGCAG | 1.03 | 0.343 | 1.54 | 0.783 | 0.981 |
| GGGCCT | -0.497 | 0.068 | 0.175 | -0.234 | -0.278 |
| GTCACG | -0.562 | -0.002 | 0.248 | -0.613 | -0.634 |
| GAGCAA | -1.45 | 0.071 | -0.159 | -1.25 | -1.13 |
| TCTATT | 0.968 | 0.484 | 0.325 | 0.879 | 1.1 |
| AACGTT | -1.03 | -0.543 | -0.933 | -1.04 | -0.924 |
| CAACAG | -0.43 | 2.67 | 1.85 | -0.103 | -0.654 |
| TGACTT | 0.082 | 0.002 | -0.454 | 0.026 | 0.168 |
| GTTTCT | -0.115 | 0.496 | 0.066 | 0.011 | 0.076 |
| CAATTG | 0.028 | -0.103 | -0.208 | -0.161 | 0.061 |
| CCTCGA | -1.94 | -0.291 | -0.897 | -1.71 | -1.79 |
| CTAATG | 0.127 | -0.264 | -0.494 | -0.007 | 0.242 |

| Sequence | 6-mer SELEX enrichment z-score (IMP3 KH1-4) | 6-mer SELEX enrichment z-score (IMP3 RRM1-2) | 6-mer SELEX enrichment z-score (IMP3 full-length) | 6-mer SELEX enrichment z-score (IMP3 KH1-2) | 6-mer SELEX enrichment z-score (IMP3 KH3-4) |
| --- | --- | --- | --- | --- | --- |
| CGTTAC | -0.275 | 0.151 | -0.091 | -0.264 | -0.406 |
| CAGCAT | 0.558 | 0.774 | 1.4 | 0.371 | 0.047 |
| AGCTCC | -0.074 | -0.19 | 0.159 | -0.048 | -0.318 |
| CACCGG | -0.096 | 0.065 | 0.982 | -0.216 | -0.648 |
| AGCGCG | -1.05 | -0.071 | -0.084 | -0.916 | -0.733 |
| GCGCGA | -0.507 | -0.112 | 0.185 | -0.444 | -0.409 |
| CATATG | 1.38 | 0.673 | 0.801 | 1.07 | 1.33 |
| GTCTAC | -0.284 | 0.113 | 0.02 | -0.308 | -0.332 |
| GGACGC | -0.239 | -0.29 | 0.124 | -0.174 | -0.318 |
| GGTCAG | 0.525 | 0.159 | 0.681 | 0.482 | 0.4 |
| GAATTT | 0.77 | -0.378 | -0.225 | 0.577 | 1.26 |
| GCATTC | 0.518 | 0.984 | 1.2 | 0.336 | 0.226 |
| CGCTAT | 0.412 | 0.117 | 0.07 | 0.434 | 0.418 |
| ATCATC | 1.36 | 2.42 | 2.6 | 1.1 | 0.669 |
| CGGGGT | 0.045 | 0.136 | 0.359 | 0.252 | 0.242 |
| TCATAT | 1.7 | 1.43 | 1.41 | 1.66 | 1.81 |
| GCAGTA | 0.154 | 0.157 | 0.424 | 0.115 | 0.166 |
| CGCAAC | -0.162 | 0.347 | 0.637 | 0.008 | -0.606 |
| GGAGGA | 1.25 | -0.541 | 0.395 | 1.25 | 0.993 |
| GTCTTC | -0.204 | 0.419 | 0.116 | -0.089 | -0.111 |

| Sequence | 6-mer SELEX enrichment z-score (IMP3 KH1-4) | 6-mer SELEX enrichment z-score (IMP3 RRM1-2) | 6-mer SELEX enrichment z-score (IMP3 full-length) | 6-mer SELEX enrichment z-score (IMP3 KH1-2) | 6-mer SELEX enrichment z-score (IMP3 KH3-4) |
| --- | --- | --- | --- | --- | --- |
| GTCGGT | 0.769 | 0.609 | 1.07 | 0.73 | 0.8 |
| CCTCTA | -0.071 | -0.169 | -0.428 | -0.123 | -0.302 |
| ACGTCT | -0.768 | 0.229 | -0.128 | -0.615 | -0.567 |
| GGAGTT | 0.042 | 0.131 | -0.015 | 0.093 | 0.268 |
| TTCTTT | 0.947 | 0.618 | 0.421 | 0.89 | 0.954 |
| CCACGT | -0.821 | -0.244 | -0.398 | -0.867 | -1.01 |
| AATATC | 0.666 | -0.022 | 0.151 | 0.706 | 0.781 |
| ATAGTC | 0.573 | 0.262 | 0.427 | 0.354 | 0.46 |
| CGCAGT | -0.33 | 0.203 | 0.115 | -0.3 | -0.403 |
| AACACG | 0.358 | 0.882 | 0.873 | 0.098 | 0.188 |
| AAAACT | -0.89 | -1.67 | -2.22 | -0.614 | -0.313 |
| ACCTCC | -0.703 | -0.639 | -1.03 | -0.573 | -1.43 |
| TGAGAT | 0.43 | -0.343 | -0.203 | 0.271 | 0.721 |
| TCCACT | 0.446 | 0.348 | -0.033 | 0.448 | -0.036 |
| ATTTAG | 0.734 | 0.176 | 0.198 | 0.579 | 1.17 |
| GTGCGG | 0.452 | 0.153 | 0.843 | 0.472 | 0.535 |
| TGACTG | 0.164 | -0.592 | -0.522 | 0.038 | 0.025 |
| AAAGAC | -0.835 | -2.08 | -1.85 | -0.872 | -0.365 |
| AGGTCA | 0.367 | 0.158 | 0.581 | 0.174 | 0.365 |
| AATTGG | -0.12 | -0.153 | -0.243 | -0.168 | 0.099 |
